# The supplement of paper PMC11417369
# ± gives the standard deviation of the averaged measurements. This is one part of the list.
# Tested on: PfAP2-LT AP2 domain (GST-tagged)
# Assay: gcPBM binding intensity (ln(normalized median fluorescence intensity)); higher = stronger DNA binding
# Procedure, shortened: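 The highest Masliner-normalised natural-log median intensity across replicate spots of either probe orientation is reported as binding intensity. GST-tagged P. falciparum DNA-binding domains expressed in E. coli were applied for 1 h to an Agilent 4 × 180k array of primer-extended double-stranded 36-bp intergenic genomic probes plus negative controls, and bound protein was detected with Alexa488 anti-GST antibody and scanned at 488 nm.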
row,Sequence,gcPBM binding intensity (ln)
1,TTTGTTTTATCTTATATGCACACGATAAAAAAAAAA [CACACA_site2673],8.47 ± 0.3
2,ATCCAAAAAATTAATGCATGCGCAAAAAATAGCTTA [TGCATGCA_site615],8.69 ± 0.4
3,AAAAAAAAAACATACACACACATATATATATATATG [CACACA_site1586],9.46 ± 0.3
4,TGTCCTTATTTGCACACACACATATAAGAAATTTAA [CACACA_site7485],9.41 ± 0.2
5,AAAAAAGACCATGTTAGTACATAAGATTTTTTTCAT [XGTACX_site4298],8.66 ± 0.48
6,TTTGACATACCTCTTGCATGTGAAAAACTTTTCGCT [TGCATGCA_site364],8.74 ± 0.58
7,ATATATAATATTTATTGTACTATTTTATTTTTATAA [XGTACX_site705],8.55 ± 0.45
8,ACTCTTTTAACGCAAAGTACTTTTTAAAATATTTCG [XGTACX_site7534],8.78 ± 0.49
9,AACATACGAATATTCACACATAAATATATAAATCGC [CACACA_site4672],9.13 ± 0.31
10,ATTTCTATTTGGGTTAGTACATATAAGTCTATTTTC [XGTACX_site3234],8.86 ± 0.43
11,TTTTTTTTTTCTTTTTGTACATATTCATAACAAGTA [XGTACX_site2784],8.39 ± 0.58
12,TATATAATCGAGTGCACACACAAAAAAAAAGTGAAC [CACACA_site1483],9.59 ± 0.42
13,TATTATATATATATCACACATATATTCATGTACATA [CACACA_site5432],8.89 ± 0.33
14,AATACGTTATTATTTTGTACATATAAATAATAAGTT [XGTACX_site815],8.63 ± 0.37
15,ATATATATATATATATGTACACATATTATAAAAAAA [XGTACX_site8644],9.05 ± 0.24
16,ATATATATTATATAGTGTACCTATGTATAATAATAT [XGTACX_site1683],8.76 ± 0.4
17,TATATATATAAATACACACACACCGTCCGTGTTAAA [CACACA_site5623],9.27 ± 0.2
18,TAACTCTATTTTTTTGCATGCTGAAGCTATGAGTTT [TGCATGCA_site821],8.81 ± 0.45
19,TATGTAGGTAAAAATTGTACTTTTTTTTTAATATTT [XGTACX_site2303],8.4 ± 0.41
20,TGAATAAATATAAAAGGTACACATATAAATATATAT [XGTACX_site6349],8.91 ± 0.4
21,TGACATAATGTGTGTAGTACATATATCGTTATTTGA [XGTACX_site5152],9.11 ± 0.37
22,ATAAAAATAAAATAAGGTACAGACGAAAAAATTGAA [XGTACX_site5097],9.02 ± 0.49

row,Sequence,gcPBM binding intensity (ln)
1,ATAATATTATGTGTGAATATATCTTTAAAAAGGATA [GTGCAC_negctrl_site15],8.97 ± 0.52
2,TATATATTTCATAATACACACGAAAAAAAAAAAAAA [CACACA_site8972],8.72 ± 0.45
3,CACAAAAATAGACACACACACATATAAATAAATATA [CACACA_site6598],9.7 ± 0.38
4,TATAAAATAAAAGTAAATATATATATATATATATAT [TGCATGCA_negctrl_site208],9.4 ± 0.35
5,TTCTAGAAAACTGATCGTACAAATAAATATAGACAC [XGTACX_site2808],8.78 ± 0.46
6,ATATATTATAATGATACACACAAGAAATAAAATTAC [CACACA_site3095],9.12 ± 0.35
7,AATGCATACACATATTGTACTAAGCCATACAACACA [XGTACX_site305],9.01 ± 0.33
8,AAAATAGGGATCACGTGTACATATAAAGTGACATAC [XGTACX_site8190],9.21 ± 0.51
9,AAAAATAAATTTATATATTACAAGAACAAATATAGT [XGTACX_negctrl_site567],8.71 ± 0.53
10,GAATAAATAAGATACGTACACACATATACAAAATAT [CACACA_site3660],9.34 ± 0.39
11,ATAATATAAACGTATACACACAAGAGAAGCATAAAG [CACACA_site2889],9.37 ± 0.35
12,AAAAGGAAAGGAAAGGGTACAATCCTATTATATTAT [XGTACX_site8652],8.71 ± 0.56
13,TTTTTTTAAAAAAAGGGTACATATATATATTTTTCT [XGTACX_site1066],8.43 ± 0.49
14,TATATATCTATAAACACACACCAAAATTTGTGCTTT [CACACA_site7448],9.12 ± 0.47
15,ATAAAATGAACAAACACACACACATATATTTATATA [CACACA_site7181],9.84 ± 0.16
16,AAATAAAAAGAAAAGAAAAAGAAAATAAAAAGAGAA [XGTACX_negctrl_site14],8.79 ± 0.67
17,ATATACTTTAAAGGTTAAGAAAGAAAAAAAAAAAAA [CACACA_negctrl_site956],8.31 ± 0.49
18,ATATATATATATTATATGCACACGTTAAAATTTCAT [CACACA_site709],9.09 ± 0.32
19,GTATTACATGAGGACACACACAAAAAAAATATATAT [CACACA_site769],9.57 ± 0.51
20,TAATTATTTTAAAAAGTGCATTAAAAGATATTAAAT [GTGCAC_site9694],8.31 ± 0.4
21,TTATTATAAAAATGTAGTACAATACTTTTTTTTTTT [XGTACX_site732],8.35 ± 0.44
22,ATATGTATCTCATCGTGTACATGTATATAATATATA [XGTACX_site4139],8.95 ± 0.35

row,Sequence,gcPBM binding intensity (ln)
1,ATATAGTAAAGTTATACACACATGAATTTTCCCATG [CACACA_site6923],9.04 ± 0.42
2,ATATATCAAAATAATTGTACAAATTTTATATAATTT [XGTACX_site7249],8.53 ± 0.47
3,TTAGAAAAATTATATATACACACTTATATTTATATA [CACACA_site2821],8.56 ± 0.5
4,TTAAAAAGATGTCACTGTACATAAAACATAAAATAT [XGTACX_site2886],8.94 ± 0.47
5,TTTCATGACAATGTTTGTACATAATAAAATATATTT [XGTACX_site7039],8.59 ± 0.42
6,TAAACAGACATATAAACACACATACATACATACATA [CACACA_site7215],9.41 ± 0.32
7,AAAAAAAAAAAAAAAACACACATAAAACTATAATAA [CACACA_site7758],8.85 ± 0.57
8,GAAGAGACTTAGAAAACACACATACATAAGATAATT [CACACA_site5333],9.08 ± 0.41
9,CTTATACATATATATAGTACATATATCATTTTTATG [XGTACX_site4462],8.89 ± 0.61
10,GTCATATATAATTGTTGTACATTTTTATAATTATGT [XGTACX_site8091],9.03 ± 0.47
11,AATTTTCTTAAAATTTGTACGTATATATTTAATATA [XGTACX_site3906],8.54 ± 0.36
12,AATATAAATGTGATTACACACAACACATTTAAATGT [CACACA_site1212],9.2 ± 0.34
13,AAAAAATTATATTATGCACACATCGTTATATATATA [CACACA_site1201],9.04 ± 0.4
14,TATATATACTATAACACACATACACCCAAAAAAAAA [CACACA_site536],9.3 ± 0.33
15,TGTTTTATTTAGAAGGTGCACATTAATATTAAATAA,8.54 ± 0.45
16,ATATGCATTTTTATACGTACATATTTCTTTTCGTTA [XGTACX_site1497],9 ± 0.4
17,CATATTTTTATGAGATGTACAATAAGAAATATGTAA [XGTACX_site2389],8.57 ± 0.42
18,ACAAAAGGGGAATACACACACATATATAAATAAATA [CACACA_site7111],9.59 ± 0.6
19,TTCATAAGAAGGAACTGTACATATTTTTCATTTTTT [XGTACX_site6770],8.51 ± 0.52
20,AACAGGTCATAATTTACACACTATATATCTTATTAT [CACACA_site6461],9.06 ± 0.43
21,CGATTTTTTTTTTATTGTACTTGCTCGCATGCAATA [XGTACX_site4727],8.79 ± 0.46
22,TGTATACCTTAATATACACACATACAGATATATATA [CACACA_site4860],8.96 ± 0.38

row,Sequence,gcPBM binding intensity (ln)
1,TACAATCTTTCATTATGTACTTAACATTTTTTCTGT [XGTACX_site8752],8.85 ± 0.52
2,TTATATGTATATATATGTATATATATATATATATAG [TGCATGCA_negctrl_site461],8.82 ± 0.2
3,CATACAGATGGACACACACACACACCCACAGACAAA [CACACA_site4431],9.93 ± 0.36
4,TTTTTTTTTTGATGCACACACCTGAACGAGTTAATA [CACACA_site4329],9.17 ± 0.44
5,TTATCCTTGTAACAATGTACACATTATTTAATACTT [XGTACX_site1830],8.86 ± 0.52
6,GCATAAACGGATAATTAATTATATTATATTATATCA [CACACA_negctrl_site1519],8.7 ± 0.48
7,TCGTGAATGATTTAAGTACACACCGGTATTTATTCA [CACACA_site1564],9.04 ± 0.4
8,ATTTATTTATATATATTATTTGTTTTAATTTACTTA [XGTACX_negctrl_site246],8.66 ± 0.54
9,TATTGTTGTCTTTACACATGCAACAAAAGAAGAAAA [TGCATGCA_site911],8.58 ± 0.44
10,TATTCTAATATTTATACACACATAACTTTGATAAAT [CACACA_site6418],8.75 ± 0.42
11,TTTCTTGGGAGACATGCATGTACCAGAACAAAATAA [TGCATGCA_site272],8.79 ± 0.5
12,ATTAATTATTGTAATTGTACATTTTATATATATCCA [XGTACX_site2105],8.81 ± 0.45
13,TATATATAGCATATTTCACACACACCGAATGAATAT [CACACA_site9182],9.42 ± 0.31
14,CACCCATAGAAACACACACACGCATAAAAAAAAAAA [CACACA_site1513],9.56 ± 0.37
15,TAAAAACAAAAATGCACACATAATAAGCATATGTAT [CACACA_site3469],9.14 ± 0.37
16,TACAAAATAGTTTACACACACATATATATACATATA [CACACA_site2615],9.18 ± 0.28
17,TTTATTTTTATGGTCACACATATTTTTAAAACTATA [CACACA_site4372],8.72 ± 0.43
18,TTTTTTTTTTTATATACTGGAAATATATTTAATTTA [GTGCAC_negctrl_site250],8.26 ± 0.47
19,TTTTTTTAATTTGGTTGTACTTAAAAAAAAAACAGA [XGTACX_site5788],8.03 ± 0.42
20,GGTAAGTACGACTTGACACACATACCCATATATATA [CACACA_site4837],9.2 ± 0.55
21,ACAGTATCTGGTAGCTGTACGAGTCGTAGAGTGCAG [XGTACX_site2015],9.04 ± 0.53
22,GCGAAATATTATTATAGTATACAAATACTTCTATGA [CACACA_negctrl_site197],8.62 ± 0.42
